# Measurements taken from the supplement of paper PMC12217912.
# The other results are listed elsewhere or left out. The full chains were built here from the parent and the listed change. Values near 0.05 are background.
# B1: TEV protease; numbered along this chain (parent)
# chain: MGESLFKGPRDYNPISSSICHLTNESDGHTTSLYGIGFGPFIITNKHLFRRNNGTLVVQSLHGVFKVKDTTTLQQHLVDGRDMIIIRMPKDFPPFPQKLKFREPQREERICLVTTNFQTKSMSSMVSDTSCTFPSGDGIFWKHWIQTKDGQCGSPLVSTRDGFIVGIHSASNFTNTNNYFTSVPKNFMELLTNQEAQQWVSGWRLNADSVLWGGHKVFMVKPEEPFQPVKEATQL
# Variants of: B1
# Test: raw area under fraction-flipped curve 0-4 h after induction (AUC4h, not background-subtracted), DNA-recorder readout of cleavage of the substrate (dimensionless); higher = more cleavage of the substrate by the protease variant
# Conditions: temperature: 34 °C; time window: 0-4 h after rhamnose induction
# Procedure: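 In vivo DNA recorder in E. coli TOP10(DE3) ΔrhaA at 34 °C. Each TEVp single-site mutant (parent TEVp 0) is paired with a single-site variant of the 7-mer TEVs (canonical ENLYFQ|S). The substrate sits between flexible linkers in a Bxb1-sfGFP-TEVs-SsrA fusion, so cleavage stabilises Bxb1 and speeds flipping of a recombination array, read by NGS. The value is the raw area under the fraction-flipped curve over 0-4 h after rhamnose induction (AUC4h), with ≥20 reads per time point. It is not background-subtracted; inactive controls average about 0.047.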
# 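Further: Bxb1 expression induced with 0.2% (w/v) L-rhamnose at OD600 near 0.5, cultures sampled hourly, flipped fraction per protease–substrate barcode pair counted by paired-end Illumina sequencing.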
Variant,area with substrate ENLYCQS,area with substrate ENLYEQS,area with substrate ENLYGQS,area with substrate ENLYHQS,area with substrate ENLYKQS,area with substrate ENLYLQS,area with substrate ENLYMQS,area with substrate ENLYNQS,area with substrate ENLYRQS,area with substrate ENLYSQS,area with substrate ENLYVQS,area with substrate ENLYWQS,area with substrate ENLYYQS,area with substrate ENLYIQS,area with substrate ENLYQQS,area with substrate ENLYDQS,area with substrate ENLYPQS,area with substrate ENLYTQS
P9I,0.0867,0.0653,0.0968,0.0688,0.0243,0.105,0.121,0.0795,0.0685,0.0654,0.111,0.0814,0.0568,,,,,
R10T,0.0986,,,0.0705,0.0675,,0.0914,0.0538,,0.0771,,,,0.111,0.066,,,
Y34A,0.0747,,0.0513,0.0522,0.0241,,,0.075,0.0604,,0.0538,0.0608,,,,0.0639,0.0632,
G37H,0.0755,0.0513,,0.0591,0.0403,,,0.0585,,,,0.0688,,,0.0512,,0.0504,
F38H,0.0901,0.0615,0.0744,0.0755,0.048,,0.0872,0.0656,0.0696,,,0.0853,0.061,0.121,,0.049,,0.0811
I43Y,0.0477,0.0476,0.0384,0.0506,0.0511,0.0526,0.0671,0.0493,0.0373,,0.0175,0.0517,0.0403,,,0.0486,0.0477,
F65D,0.0684,0.0608,,0.0745,0.0565,0.0677,0.0482,,0.0506,,,,0.0574,,0.0533,0.0479,0.0575,
F65H,0.0894,0.0837,0.0546,0.0504,0.0704,0.0892,0.0915,0.0662,0.0611,0.076,0.106,,0.0654,0.114,,0.06,,
V67P,0.0391,,0.0341,0.0463,0.0457,0.046,0.0442,0.0341,0.0434,0.0379,0.0263,0.0484,,0.0536,0.0461,0.0419,0.0609,
K68W,0.0858,0.0745,,0.073,0.0214,0.0772,0.0809,0.0743,0.0635,0.0795,,0.074,0.0751,0.0991,0.0405,,0.0721,0.0702
T70K,0.0602,0.0355,0.0575,0.0476,,,,,,0.0751,0.0603,,,0.0642,0.0611,0.0598,0.057,0.0497
T71Q,0.118,,,0.0629,0.0516,,0.101,0.0695,0.0665,,,,,0.152,,,0.0577,
T71R,0.107,0.0722,0.0809,,,,0.076,0.0601,,,0.119,0.0926,,0.154,,0.0505,,
L73C,0.0607,,,0.0705,0.0603,,,,0.0655,0.057,0.0077,0.0554,,,0.0662,,0.0622,
Q74K,0.0575,0.0773,0.0691,0.0665,0.0576,0.0838,0.0697,,0.0624,,,,,,0.0568,0.0593,0.0834,
Q75I,0.0727,0.0672,0.0598,0.0381,,0.07,,0.0609,,0.078,,0.0802,,,,0.0706,0.0653,
R81S,0.0554,0.0616,0.0568,0.0665,,,,0.0692,0.0451,,,,0.0569,0.054,0.0543,0.0456,,
R81W,0.0577,,0.0237,0.0628,0.0687,,0.0578,0.0563,,0.0551,0.0872,,0.0497,,0.0736,0.0481,0.0647,
I84D,0.0448,0.0502,0.0477,,0.014,,0.0399,,0.0596,0.0506,0.0591,0.0422,,0.0591,,0.0358,0.0456,0.0311
I84R,0.0793,0.0565,0.006,0.0619,0.0387,,0.0584,0.0574,,0.052,0.056,,,0.054,0.0581,,0.0615,
I86S,0.0744,,,,0.0357,0.0597,0.0858,0.0545,0.0488,,,0.0557,0.0416,,0.0649,0.0507,,
R87S,0.0647,0.0594,0.0673,0.0582,0.0647,,0.0714,0.0716,0.0456,,0.0931,0.0781,,0.0827,,0.0634,0.0505,
P89Q,0.0797,0.0681,0.0627,0.0692,0.0664,0.0909,0.0655,,0.0627,0.0583,0.121,,0.0626,0.041,0.0677,0.0508,0.0619,0.0763
P93V,0.0956,0.0754,,0.0753,,,0.0881,,0.0596,,0.135,0.0705,0.0796,0.116,,0.0955,0.0672,0.0711
L99F,0.0639,,0.068,,0.0766,,0.057,,,,,0.0557,0.0622,0.0977,,0.063,,0.0709
F101C,0.0757,0.0601,0.0575,0.0586,0.0548,,0.0596,0.0555,0.0596,0.0735,0.0745,0.0552,0.0503,,0.0601,0.0607,,0.0323
F101R,0.0487,0.0512,0.0459,,0.0423,,0.0532,0.0531,0.0561,0.0513,0.03,0.0408,,0.0539,,,0.0531,
R102P,0.0534,,0.0478,0.0609,0.0433,,,,0.047,0.0386,0.0397,,0.0811,,0.0309,0.0443,0.0465,
E107R,0.116,0.0708,0.0616,,0.0701,,0.0902,0.0719,0.0516,0.0731,,,0.0583,0.0256,0.0422,0.0582,0.07,
I110L,0.0952,0.0696,0.0646,0.0609,,,0.0928,0.0515,,,,0.0852,0.0502,,0.0651,0.0592,0.0793,0.0798
